Structures can show the parent of a compound that is named as a salt. In all, about 2,000 compounds were measured (“fractional viability relative to vehicle”: median about 0.92, lowest 2% from about 0.11 on). The list shows a part of the results.
Test system: TYKNU
Test: fractional viability relative to vehicle; TYKNU is a high-grade serous ovarian cancer line; higher = less growth inhibition
Details: 72 h, genotype: OPA1 knockout (sgOPA1 #2)
Method in brief: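 Drug treatment lasted 72 h, with cells grown at 37 °C in 5% CO2 in RPMI 1640 supplemented with 10% FBS. Beforehand, TYKNU control cells or their lentiCRISPRv2 knockout derivatives had been seeded at 500 cells per well into drug-stamped 384-well plates carrying a ~2100-compound library at 2 or 10 μM, in duplicate. Viability came from Cell Titer Glo luminescence, with averaged duplicate treatment wells normalised to duplicate control wells in the same plate position.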

Compound | fractional viability (2uM) | fractional viability (10uM)
COc1cc(C=O)ccc1O [Vanillin] | 1.11 | 0.938
C1=N/C2=N/c3ccc(OCCN4CCCC4)c(c3)COC/C=C/COCc3cccc(c3)C(=C1)N2 [Pacritinib (SB1518)] | 0.318 | 0.0734
Cc1[nH]c(/C=C2\C(=O)Nc3ccccc32)c(C)c1CCC(=O)O [TSU-68 (SU6668, Orantinib)] | 1.1 | 1.05
CC(=O)N1CCN(c2ccc(OCC3COC(Cn4ccnc4)(c4ccc(Cl)cc4Cl)O3)cc2)CC1 (configuration not stated) [Ketoconazole] | 1.05 | 0.864
CN(CCOc1ccc(NS(C)(=O)=O)cc1)CCc1ccc(NS(C)(=O)=O)cc1 [Dofetilide] | 1.08 | 0.78
CCN(CC)CCCC(C)Nc1c2ccc(Cl)cc2nc2ccc(OC)cc12 (configuration not stated) [Quinacrine 2HCl] | 0.837 | 0.105
Cc1nc(C)c(Cl)c(O)c1Cl [Clopidol] | 0.76 | 1.03
O=C(O)P(=O)(O)O [Foscarnet Sodium] | 0.963 | 1.04
CC(C)(C)NS(=O)(=O)c1cncc(-c2cc(F)c3nc(N)nn3c2)c1 | 1.04 | 1.06
OC[C@@H](O)[C@@H](O)[C@H](O)[C@H](O)CO [D-Mannitol] | 0.994 | 0.801
C[C@H](NCc1ccc(OCc2cccc(F)c2)cc1)C(N)=O [Safinamide Mesylate] | 1.13 | 1.11
CC(=O)OCC(=O)NCCCOc1cccc(CN2CCCCC2)c1 [Roxatidine Acetate HCl] | 0.975 | 1.19
CCn1cc(C(=O)O)c(=O)c2cc(F)c(N3CCNCC3)nc21 [Enoxacin] | 1.01 | 0.993
CC(C(=O)O)c1cccc(Oc2ccccc2)c1 (configuration not stated) [Fenoprofen calcium hydrate] | 0.951 | 0.994
CC(C(=O)O)c1cccc(Oc2ccccc2)c1 (configuration not stated) [Fenoprofen Calcium] | 1.21 | 1.04
COCCOc1nc(-c2ccc(Cl)c(Cl)c2)n(-c2ccc(NC(=O)CCl)cc2)n1 [MI-2 (MALT1 inhibitor)] | 1 | 0.952
OC[C@H]1OC(O)[C@H](O)[C@@H](O)[C@@H]1O (some centres not stated) [Dextrose] | 0.997 | 0.94
O=C1NC(=O)C(c2ccccc2[N+](=O)[O-])=C1Nc1ccc(O)c(Cl)c1 | 1.03 | 1.01
O=C1NC(=O)/C(=C/c2ccc3nccc(-c4ccncc4)c3c2)S1 | 0.755 | 0.435
CCCc1ncc(C[n+]2ccccc2C)c(N)n1 [Amprolium HCl] | 1.07 | 0.94
CCCCCOc1ccc(-c2ccc(-c3ccc(C(=O)N[C@H]4C[C@@H](O)[C@@H](O)NC(=O)[C@@H]5[C@@H](O)[C@@H](C)CN5C(=O)[C@H]([C@@H](C)O)NC(=O)[C@H]([C@H](O)[C@@H](O)c5ccc(O)cc5)NC(=O)[C@@H]5C[C@@H](O)CN5C(=O)[C@H]([C@@H](C)O)NC4=O)cc3)cc2)cc1 | 1.02 | 0.857
CC(C)c1nc(N(C)S(C)(=O)=O)nc(-c2ccc(F)cc2)c1/C=C/[C@@H](O)C[C@@H](O)CC(=O)O [Rosuvastatin Calcium] | 1.06 | 1.07

Compound | fractional viability (2uM) | fractional viability (10uM)
O=C(COc1cccc2c(=O)[nH]ccc12)c1ccccc1 | 0.81 | 1.01
CCNC(=O)[C@H]1O[C@@H](n2cnc3c(N)nc(NCCc4ccc(CCC(=O)O)cc4)nc32)[C@H](O)[C@@H]1O | 1.09 | 1.13
CS(=O)(=O)c1ccc([C@@H](O)[C@@H](CF)NC(=O)C(Cl)Cl)cc1 [Florfenicol] | 1.1 | 1.35
CC(C)OC(=O)C(C(=O)OC(C)C)=C1SC=CS1 [Malotilate] | 1.18 | 0.94
CC[C@]12C=CCN3CC[C@@]4(c5cc([C@@]6(C(=O)OC)C[C@@H]7C[C@@H](C(C)(F)F)CN(Cc8c6[nH]c6ccccc86)C7)c(OC)cc5N(C)[C@H]4[C@@](O)(C(=O)OC)[C@@H]1OC(C)=O)[C@@H]32 [Vinflunine Tartrate] | 0.331 | 0.328
c1ccc2c(c1)CCCC2C1=NCCN1 (configuration not stated) [Tetrahydrozoline HCl] | 1.01 | 0.817
C=C(C)[C@@H]1CC[C@]2(C(=O)O)CC[C@]3(C)[C@H](CC[C@@H]4[C@@]5(C)CC[C@H](O)C(C)(C)[C@@H]5CC[C@]43C)[C@@H]12 [Betulinic acid] | 0.916 | 0.979
O=C(O)C1=C[C@@H](O)[C@@H](O)[C@H](O)C1 [Shikimic Acid] | 1.04 | 0.875
C1N2CN3CN1CN(C2)C3 [Methenamine] | 1.11 | 0.862
CC1(C)CCC(c2ccc(Cl)cc2)=C(CN2CCN(c3ccc(C(=O)NS(=O)(=O)c4ccc(N[C@H](CCN5CCOCC5)CSc5ccccc5)c(S(=O)(=O)C(F)(F)F)c4)cc3)CC2)C1 [ABT-263 (Navitoclax)] | 0.857 | 0.555
O=C(COc1ccc(C(=O)c2ccccc2)cc1)NC1CCN(Cc2ccccc2)CC1 [AdipoRon] | 0.858 | 0.828
CCOC(=O)N1CCC(=C2c3ccc(Cl)cc3CCc3cccnc32)CC1 [Loratadine] | 0.977 | 0.79
Nc1nc(F)nc2c1ncn2[C@@H]1O[C@H](COP(=O)(O)O)[C@@H](O)[C@@H]1O [Fludarabine Phosphate] | 0.545 | 0.255
O=C(NOCC1CC1)c1ccc(F)c(F)c1Nc1ccc(I)cc1Cl | 0.943 | 0.483
CN1CCN(S(=O)(=O)c2ccc(-c3cnc(N)c(C(=O)Nc4cccnc4)n3)cc2)CC1 | 1.07 | 0.554
COc1ccc(-c2coc3cc(O)ccc3c2=O)cc1 [Formononetin] | 0.839 | 0.875
CNc1nc(-c2ccc3c(N)n[nH]c3c2)cc(N2C[C@@H](C(=O)NC3CCCCC3)CC[C@H]2C)n1 | 0.828 | 0.571
Oc1c(Br)cc(Br)c2cccnc12 [Broxyquinoline] | 0.901 | 0.487
Nc1ccc2ncnc(NCCc3ccc(Oc4ccccc4)cc3)c2c1 | 1.03 | 0.964
Cc1ccc2c(c1)C(=O)C1(O)CCN(c3ccccc3)C1=N2 (single isomer, unassigned; (-)) [(-)-Blebbistatin] | 0.984 | 0.834
CC(C)C[C@H](NC(=O)[C@H](Cc1ccccc1)NC(=O)c1cnccn1)B(O)O [Bortezomib (PS-341)] | 0.324 | 0.257
COc1ccc(CC(C)NCC(O)c2ccc(O)c(NC=O)c2)cc1 (configuration not stated) [Formoterol Hemifumarate] | 0.939 | 0.897

Compound | fractional viability (2uM) | fractional viability (10uM)
CS(=O)(=O)c1ccc(C(=O)Nc2ccc(Cl)c(-c3ccccn3)c2)c(Cl)c1 [Vismodegib (GDC-0449)] | 1.13 | 1.11
NC(=O)N1CCC(CC(=O)N2CCC([C@H]3c4ncc(Br)cc4CCc4cc(Cl)cc(Br)c43)CC2)CC1 [Lonafarnib] | 0.821 | 0.583
C[C@H](N[C@@H](CCc1ccccc1)C(=O)O)C(=O)N1CCC[C@H]1C(=O)O [Enalaprilat Dihydrate] | 1.06 | 1.07
O=C(Nc1cc(C(F)(F)F)cc(C(F)(F)F)c1)c1cc(Cl)ccc1O | 0.397 | 0.308
CN(C)[C@@H]1C(O)=C(C(N)=O)C(=O)[C@@]2(O)C(O)=C3C(=O)c4c(O)cccc4[C@@](C)(O)[C@H]3C[C@@H]12 [Tetracycline HCl] | 1.57 | 1.46
COC(=O)[C@H](c1ccccc1Cl)N1CCc2sccc2C1 [Clopidogrel] | 1.18 | 1.04
COCCCC/C(=N\OCCN)c1ccc(C(F)(F)F)cc1 [Fluvoxamine maleate] | 1.33 | 0.967
Cc1c(Cl)cccc1Nc1ccccc1C(=O)O [Tolfenamic Acid] | 1.05 | 0.964
CCCSc1ccc2[nH]c(NC(=O)OC)nc2c1 [Albendazole] | 0.518 | 0.413
CO[C@H]1/C=C/O[C@@]2(C)Oc3c(C)c(O)c4c(O)c(c(/C=N/N5CCN(C)CC5)c(O)c4c3C2=O)NC(=O)/C(C)=C\C=C\[C@H](C)[C@H](O)[C@@H](C)[C@@H](O)[C@@H](C)[C@H](OC(C)=O)[C@@H]1C [Rifampin] | 1.13 | 1.05
CNC[C@@H](O)c1ccc(O)c(O)c1 [L-Adrenaline] | 0.849 | 0.628
Cc1ccc(N(CC2=NCCN2)c2cccc(O)c2)cc1 [Phentolamine Mesylate] | 1.16 | 1.01
CC(C)Nc1cc(-c2c[nH]c(C(=O)N[C@H](CO)c3cccc(Cl)c3)c2)c(Cl)cn1 | 0.453 | 0.36
CCc1ccc(CCOc2ccc(CC3SC(=O)NC3=O)cc2)nc1 (configuration not stated) [Pioglitazone] | 0.753 | 0.719
CCc1ccc(CCOc2ccc(CC3SC(=O)NC3=O)cc2)nc1 (configuration not stated) [Pioglitazone HCl] | 0.939 | 0.996
c1ccc(CC2=NCCN2)cc1 [Tolazoline HCl] | 0.978 | 0.936
CC(C)(Oc1ccc(CCNC(=O)c2ccc(Cl)cc2)cc1)C(=O)O [Bezafibrate] | 1.04 | 0.845
O=C(O)CCCc1c[nH]c2ccccc12 [3-Indolebutyric acid (IBA)] | 1.07 | 0.965
O=C(c1cc(Cc2n[nH]c(=O)c3ccccc23)ccc1F)N1CCN(C(=O)C2CC2)CC1 | 1.03 | 0.936
O=C1c2ccccc2C(=O)C1c1ccccc1 [Phenindione] | 1.08 | 0.844
O=C(O)CCc1nc(-c2ccccc2)c(-c2ccccc2)o1 [Oxaprozin] | 1 | 0.923
CC[C@H]1OC(=O)[C@H](C)[C@@H](O[C@H]2C[C@@](C)(OC)[C@@H](O)[C@H](C)O2)[C@H](C)[C@@H](O[C@@H]2O[C@H](C)C[C@H](N(C)C)[C@H]2O)[C@](C)(O)C[C@@H](C)C(=O)[C@H](C)[C@@H](O)[C@]1(C)O [Erythromycin] | 1.08 | 0.961

— the supplement of paper PMC5919970
